According to article PMC5722342:
These are yes or no findings as the source states them, for the method shown. Binding seen in cells or lysates may run through a third protein. Some results given as binding are weak or reduced against the parent protein; the word gives no strength.

Target: MITA/STING, Q86WV6
Experiment: co-IP; HEK293 cells transfected with the indicated plasmids; NP-40 lysis buffer (20 mM Tris-HCl pH 7.4, 150 mM NaCl, 1 mM EDTA, 1% Nonidet P-40); immunoprecipitation and immunoblot with the indicated antibodies (Fig 4A, 4C)
Conditions: remark: other sources report otherwise

B1: inactive rhomboid protein 2 (iRhom2), Q6PJF5 1-856 (protein)
chain: MASADKNGGSVSSVSSSRLQSRKPPNLSITIPPPEKETQAPGEQDSMLPEGFQNRRLKKSQPRTWAAHTTACPPSFLPKRKNPAYLKSVSLQEPRSRWQESSEKRPGFRRQASLSQSIRKGAAQWFGVSGDWEGQRQQWQRRSLHHCSMRYGRLKASCQRDLELPSQEAPSFQGTESPKPCKMPKIVDPLARGRAFRHPEEMDRPHAPHPPLTPGVLSLTSFTSVRSGYSHLPRRKRMSVAHMSLQAAAALLKGRSVLDATGQRCRVVKRSFAFPSFLEEDVVDGADTFDSSFFSKEEMSSMPDDVFESPPLSASYFRGIPHSASPVSPDGVQIPLKEYGRAPVPGPRRGKRIASKVKHFAFDRKKRHYGLGVVGNWLNRSYRRSISSTVQRQLESFDSHRPYFTYWLTFVHVIITLLVICTYGIAPVGFAQHVTTQLVLRNKGVYESVKYIQQENFWVGPSSIDLIHLGAKFSPCIRKDGQIEQLVLRERDLERDSGCCVQNDHSGCIQTQRKDCSETLATFVKWQDDTGPPMDKSDLGQKRTSGAVCHQDPRTCEEPASSGAHIWPDDITKWPICTEQARSNHTGFLHMDCEIKGRPCCIGTKGSCEITTREYCEFMHGYFHEEATLCSQVHCLDKVCGLLPFLNPEVPDQFYRLWLSLFLHAGVVHCLVSVVFQMTILRDLEKLAGWHRIAIIFILSGITGNLASAIFLPYRAEVGPAGSQFGLLACLFVELFQSWPLLERPWKAFLNLSAIVLFLFICGLLPWIDNIAHIFGFLSGLLLAFAFLPYITFGTSDKYRKRALILVSLLAFAGLFAALVLWLYIYPINWPWIEHLTCFPFTSRFCEKYELDQVLH
  binding: binds
